# Experimental data reported in publication PMC4336329 (PLoS ONE, 2015).
# Among all 310,000 compounds or so, about 2,200 (0.71%) showed an effect of 50% or more. Effects have a minus sign here. Some of the results follow.
# Target: human ether-à-go-go-related gene (hERG) potassium channel (human, UniProt Q12809)
# Experiment: primary screen, population patch clamp on CHO cells stably expressing hERG
# Sequence of human ether-à-go-go-related gene (hERG) potassium channel (Q12809 whole entry, looked up): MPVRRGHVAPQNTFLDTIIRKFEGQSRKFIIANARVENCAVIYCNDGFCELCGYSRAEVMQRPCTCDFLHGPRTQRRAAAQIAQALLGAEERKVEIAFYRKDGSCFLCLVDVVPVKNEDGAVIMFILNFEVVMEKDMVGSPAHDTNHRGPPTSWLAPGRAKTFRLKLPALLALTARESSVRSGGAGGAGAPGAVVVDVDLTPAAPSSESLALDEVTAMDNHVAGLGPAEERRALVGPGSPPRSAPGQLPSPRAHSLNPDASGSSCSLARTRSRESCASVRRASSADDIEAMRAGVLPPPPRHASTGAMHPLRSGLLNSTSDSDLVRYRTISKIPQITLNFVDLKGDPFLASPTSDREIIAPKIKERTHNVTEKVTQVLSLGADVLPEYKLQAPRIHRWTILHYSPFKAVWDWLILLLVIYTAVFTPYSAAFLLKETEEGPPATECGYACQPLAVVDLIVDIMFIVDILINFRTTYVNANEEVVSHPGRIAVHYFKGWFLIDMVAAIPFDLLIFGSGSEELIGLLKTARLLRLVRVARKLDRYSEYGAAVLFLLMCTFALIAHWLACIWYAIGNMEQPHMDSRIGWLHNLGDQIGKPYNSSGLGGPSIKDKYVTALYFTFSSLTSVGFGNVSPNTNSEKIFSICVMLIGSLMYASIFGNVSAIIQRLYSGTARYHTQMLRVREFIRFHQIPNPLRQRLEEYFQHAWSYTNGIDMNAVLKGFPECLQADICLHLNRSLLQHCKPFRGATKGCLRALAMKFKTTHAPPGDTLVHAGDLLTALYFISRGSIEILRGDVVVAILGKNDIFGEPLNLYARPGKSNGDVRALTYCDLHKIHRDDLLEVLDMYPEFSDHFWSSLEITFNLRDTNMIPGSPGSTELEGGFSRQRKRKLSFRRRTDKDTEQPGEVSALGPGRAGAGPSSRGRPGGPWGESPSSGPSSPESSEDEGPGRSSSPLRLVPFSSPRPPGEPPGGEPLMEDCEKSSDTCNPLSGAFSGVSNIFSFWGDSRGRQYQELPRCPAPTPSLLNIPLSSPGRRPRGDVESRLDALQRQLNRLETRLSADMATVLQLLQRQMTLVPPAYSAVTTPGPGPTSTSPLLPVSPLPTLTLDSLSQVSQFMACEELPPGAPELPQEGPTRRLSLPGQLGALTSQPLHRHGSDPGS
row,Structure (SMILES),"hERG current change (%, negative = inhibition) at 1uM [%]"
1,Cc1ccc(-n2nc3c(c2NC(=O)c2ccc4c(c2)OCO4)CS(=O)C3)cc1 (stereo not drawn),9.01
2,CN(CC(=O)Nc1ccc(N2CCOCC2)cc1)CC(=O)Nc1ccc([N+](=O)[O-])cc1Br,15.7
3,COc1ccc(C)cc1NC(=O)/C=C/c1ccc(OC)c(S(=O)(=O)N2CCOCC2)c1,7.82
4,O=C(CSCc1c(Cl)cccc1Cl)NN=C1CCCC1,9.1
5,Cc1cc2oc(=O)cc(CSc3nc(N)cc(N)n3)c2cc1C,11.7
6,C/C(CCc1oc2c(Br)cc(Br)cc2c1-c1ccc(C)o1)=N\O,14.3
7,CCn1c(CSc2nc(C)cc(C)n2)nnc1SCC(N)=O,14.1
8,Cc1cc(N2CCCC2=O)cc(C)c1S(=O)(=O)Nc1c(C)nn(C)c1C,19.1
9,O=C(CN1C(=O)c2ccccc2S1(=O)=O)N1CCc2ccccc21,9.52
10,CCCCOC(=O)c1ccc(NC(=O)C(=O)NCCN(CC)CC)cc1,-14.7
11,CS(=O)(=O)Nc1cccc(C2=NN(S(=O)(=O)c3ccccc3)C(c3ccco3)C2)c1 (stereo not drawn),3.15
12,CCOc1cc(C(=O)Nc2ccc(S(=O)(=O)Nc3nnc(CC)s3)cc2)cc(OCC)c1OCC,13.1
13,CC(=NCc1ccc2c(c1)OCO2)c1c(O)n(-c2ccc(C)cc2)c(=O)[nH]c1=O,9.74
14,O=C(Nc1ccc(F)cc1F)c1cccn(Cc2ccccc2)c1=O,9.82
15,O=C(Nc1cccnc1)Nc1cccc([N+](=O)[O-])c1,5.71
16,N#Cc1cnn2c1nc(N1CCOCC1)c1ccccc12,8.18
17,CC(=O)Oc1ccc2c(C)cc(=O)[nH]c2c1,21
18,O=C(CN(Cc1ccccc1)C(=O)CCC(=O)Nc1nccs1)NCc1ccc(F)cc1,12.6
19,CCOC(=O)[C@H]1[C@H]2COc3ccc(OC)cc3[C@@H]2N2C(=O)c3cc(F)c(F)cc3NC(=O)[C@@]12C,12.2
20,Cc1ccccc1-c1nc2sc3c(c2c(=O)o1)CCC3,13.2
21,Cc1ccc(S(=O)(=O)N/N=C2/CCCCC2C2CCCCC2)cc1[N+](=O)[O-] (stereo not drawn),4.4
22,O=C(NCC(=O)N(c1cnc2ccccc2c1)C(C(=O)NC1CCCC1)c1ccncc1)c1ccco1 (stereo not drawn),11.9
23,COCCn1c(Cc2ccccc2)nnc1SCc1ccc([N+](=O)[O-])cc1,7.13
24,CCc1ccccc1Nc1nc(N)nc(COC(=O)C2=COCCO2)n1,8.02
25,Cc1cc(-c2[nH]nc3c2C(c2ccc(Cl)cc2)C(C#N)=C(N)O3)c(C)s1 (stereo not drawn),9.04
26,Cc1nnc(NC(=O)CN2CC(C)OC(C)C2)s1 (stereo not drawn),4.98
27,CCOC(=O)C1CCN(C(=O)c2ccc(N3CCCC3=O)cc2)CC1,8.86

row,Structure (SMILES),"hERG current change (%, negative = inhibition) at 1uM [%]"
1,COc1cccc2cc(-c3cc(=O)oc4cc(C)c(OCC(C)=O)cc34)oc12,12.8
2,COc1ccc(Sc2ccccc2CN(C)C)cc1OC.Cl,7.85
3,CCCNC(=O)c1ccccc1NC(=O)COc1cccc2c1OC(C)(C)C2,12.4
4,C=CCSc1n[nH]c2nc3c(c(=O)n12)C1(CCCC1)Cc1ccccc1-3,12.8
5,S=c1[nH]nc(CSCCOc2ccc(Cl)cc2Cl)o1,10.1
6,Nc1[nH]n2c(=O)cc(-c3ccccc3)nc2c1N=Nc1ccccc1,12.5
7,Cc1ccc(NC(=O)CN2CCN(CCN=CC3=C(O)CC(c4ccccc4)CC3=O)CC2)cc1 (stereo not drawn),-11.9
8,O=C(Nc1ccc(N2CCOCC2)nc1)c1ccccc1Cl,13.2
9,CC1=NN(C(=S)Nc2ccccc2)C(C)(C)C1,13.6
10,CCCC(=O)Nc1ccc2c(c1)nc(CN1CCN(C(C)=O)CC1)n2C,5.31
11,CN(C)/C=N/C(=S)Nc1ccccc1,6.9
12,CC(C)(C)c1ccc(C(=O)CCCSC2=C(C#N)C(c3ccco3)C3=C(CCCC3=O)N2)cc1 (stereo not drawn),4.64
13,Cc1ccc2nc(C(=O)N3CCc4c([nH]c5ccccc45)C3c3ccccn3)cn2c1 (stereo not drawn),10.9
14,CC(=O)NC1=NN(C(C)=O)C(C)(CS(=O)(=O)c2ccc3ccccc3c2)S1 (stereo not drawn),8.17
15,CC(C)(C)n1nnc(CCc2nnn(C(C)(C)C)n2)n1,17.5
16,CCOC(=O)c1cccc(NC(=O)Nc2ccc3c(c2)C(=O)OC3)c1,11.5
17,COc1ccc(S(=O)(=O)N2CCCC(C(=O)Nc3cccnc3)C2)cc1Cl (stereo not drawn),-3.37
18,CCOc1cc(C(=O)Nc2c(C)ccc3nsnc23)cc(OCC)c1OCC,-7.15
19,CC(=O)Nc1ccc(S(=O)(=O)NCC(CCC(=O)O)C(F)(F)F)cc1 (stereo not drawn),11.4
20,Cc1ccc(N=C2NC(=O)/C(=C\c3cccs3)S2)cc1C,12.4
21,Cc1nnc(SCC(=O)c2c(N)n(Cc3ccccc3)c(=O)n(C)c2=O)n1C,-2.99
22,O=C(O)CC(C(=O)Nc1ccc(F)cc1)C1CCCO1 (stereo not drawn),13.4
23,COc1ccc(C(=O)OC2CC[C@@]3(C)C4CCC5[C@]6(O)CC(O)[C@@]7(O)C(CN8CC(C)CCC8[C@@]7(C)O)[C@]6(O)C[C@@]53O[C@]24O)cc1OC (stereo partly drawn),16.1
24,C/C(Cc1ccccc1)=N\NC(=O)CNC(=O)c1ccccc1F,13.1
25,Cc1ccc(NC(=O)C2CCCN2C(=O)OC(C)(C)C)cc1C (stereo not drawn),8.59
26,O=C(CN1CCN(S(=O)(=O)c2ccc(F)cc2)CC1)Nc1ccc2c(c1)OCCO2,-1.24
27,CC(=O)N1CCc2cc(S(=O)(=O)NC(Cc3ccccc3)C(=O)Nc3cc(C)ccn3)ccc21 (stereo not drawn),-5.1
